The other results are listed elsewhere or left out. Cut-off read from the data, not from the text of the source: active = 3.2 or more and inactive = the rest. Only a few entries rise above the background.
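Note: displayed peptides selected on beads carrying the immobilized SH2 domain, with library peptides lacking any tyrosine serving as negative controls.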

For one assay, the target named is SHP2 C-SH2 domain E139D. The assay is described as follows: enrichment score (SH2-bound / input frequency) (ratio); bacterial display of known human phosphotyrosine sites (pTyr-Var adds point mutants) read by sequencing; higher = stronger binding; tyrosines were phosphorylated by kinases first. To be noted: peptide library: Human pTyr.
On to VVGENTMYAQVFNLQ [LY9_HUMAN_603], for which the enrichment score is inactive: 1.67.

ELRLRNYYYDVVNGG [KSYK_HUMAN_630]: the enrichment score is inactive: 1.24.

Take SLDGSREYVNVSQEL [LAT_HUMAN_220]: the enrichment score is inactive: 1.03.

Turning to VEVGSKIYVDDGLIS [KPYM_HUMAN_175], the enrichment score is inactive: 0.93.

Consider ADEDEDDYHNPGYLV [LAT_HUMAN_156], for which the enrichment score is inactive: 1.06.

Take GRYYEGYYAAGPGYG [LPP_HUMAN_301]: the enrichment score was inactive: 1.36.

With IKFSKGKYKCVVEAI [LY96_HUMAN_131], the enrichment score is inactive: 1.33.

With DAQEENLYAAVKHTQ [LIRB1_HUMAN_533], the enrichment score was inactive: 1.01.

MTALSQGYRMPRVEN [LYN_HUMAN_460]: the enrichment score is inactive: 0.737.

DLPDELLYGRAGALA [LANC2_HUMAN_198_YA]: the enrichment score was inactive: 0.567.

For ATATEGQYQQQPGGG [LYN_HUMAN_508_YA], the enrichment score is inactive: 0.786.

Consider EDPASSRYQNFSKGS [LAT2_HUMAN_95], for which the enrichment score is inactive: 0.812.

Regarding SNEDSSDYENVLTAK [LAX1_HUMAN_373], the enrichment score was inactive: 0.866.

In the case of TNYSNPVYAKLYMDG [LRP1B_HUMAN_4562], the enrichment score was inactive: 1.28.

Consider SDEDDEVYQVTVAQA [MDM2_HUMAN_276_YA], for which the enrichment score is inactive: 1.25.

In the case of AAPECINYAKFSSKS [KSYK_HUMAN_546_YA], the enrichment score was inactive: 1.25.

VTREEPIYIITEYMA [LYN_HUMAN_316]: the enrichment score is inactive: 1.52.

Turning to EAVATRWYRAPEIML [MAPK3_HUMAN_210_YA], the enrichment score is inactive: 0.816.

Another assay concerns the target SHP2 C-SH2 domain wild-type. The assay is described as above. Particulars: peptide library: Human pTyr.
Consider VVGENTMYAQVFNLQ [LY9_HUMAN_603], for which the enrichment score was active: 3.68.

ELRLRNYYYDVVNGG [KSYK_HUMAN_630]: the enrichment score was inactive: 1.23.

With SLDGSREYVNVSQEL [LAT_HUMAN_220], the enrichment score was inactive: 0.706.

In the case of VEVGSKIYVDDGLIS [KPYM_HUMAN_175], the enrichment score was inactive: 0.628.

In the case of ADEDEDDYHNPGYLV [LAT_HUMAN_156], the enrichment score was inactive: 0.874.

Regarding GRYYEGYYAAGPGYG [LPP_HUMAN_301], the enrichment score is inactive: 1.31.

Turning to IKFSKGKYKCVVEAI [LY96_HUMAN_131], the enrichment score was inactive: 1.13.

Consider DAQEENLYAAVKHTQ [LIRB1_HUMAN_533], for which the enrichment score is inactive: 1.09.

As to MTALSQGYRMPRVEN [LYN_HUMAN_460], the enrichment score is inactive: 0.58.

Take DLPDELLYGRAGALA [LANC2_HUMAN_198_YA]: the enrichment score is inactive: 0.506.

As for ATATEGQYQQQPGGG [LYN_HUMAN_508_YA], the enrichment score is inactive: 0.617.

For EDPASSRYQNFSKGS [LAT2_HUMAN_95], the enrichment score is inactive: 0.715.

On to SNEDSSDYENVLTAK [LAX1_HUMAN_373], for which the enrichment score is inactive: 0.8.

On to TNYSNPVYAKLYMDG [LRP1B_HUMAN_4562], for which the enrichment score was active: 3.47.

With SDEDDEVYQVTVAQA [MDM2_HUMAN_276_YA], the enrichment score was inactive: 1.06.

Regarding AAPECINYAKFSSKS [KSYK_HUMAN_546_YA], the enrichment score was inactive: 1.43.

Consider VTREEPIYIITEYMA [LYN_HUMAN_316], for which the enrichment score is inactive: 1.52.

Take EAVATRWYRAPEIML [MAPK3_HUMAN_210_YA]: the enrichment score was inactive: 0.654.

The target of the next assay is SHP2 N-SH2 domain L43F. Described as above. To be noted: peptide library: Human pTyr.
On to VVGENTMYAQVFNLQ [LY9_HUMAN_603], for which the enrichment score was inactive: 0.783.

Turning to ELRLRNYYYDVVNGG [KSYK_HUMAN_630], the enrichment score was inactive: 1.3.

On to SLDGSREYVNVSQEL [LAT_HUMAN_220], for which the enrichment score is inactive: 0.881.

As for VEVGSKIYVDDGLIS [KPYM_HUMAN_175], the enrichment score is inactive: 0.634.

As for ADEDEDDYHNPGYLV [LAT_HUMAN_156], the enrichment score was inactive: 1.2.

For GRYYEGYYAAGPGYG [LPP_HUMAN_301], the enrichment score is inactive: 1.11.

Consider IKFSKGKYKCVVEAI [LY96_HUMAN_131], for which the enrichment score is inactive: 1.89.

For DAQEENLYAAVKHTQ [LIRB1_HUMAN_533], the enrichment score was inactive: 0.562.

Regarding MTALSQGYRMPRVEN [LYN_HUMAN_460], the enrichment score was inactive: 0.66.

Consider DLPDELLYGRAGALA [LANC2_HUMAN_198_YA], for which the enrichment score is inactive: 0.637.

Regarding ATATEGQYQQQPGGG [LYN_HUMAN_508_YA], the enrichment score was inactive: 0.81.

EDPASSRYQNFSKGS [LAT2_HUMAN_95]: the enrichment score was inactive: 0.672.

In the case of SNEDSSDYENVLTAK [LAX1_HUMAN_373], the enrichment score was inactive: 0.808.

In the case of TNYSNPVYAKLYMDG [LRP1B_HUMAN_4562], the enrichment score is inactive: 1.05.

In the case of SDEDDEVYQVTVAQA [MDM2_HUMAN_276_YA], the enrichment score is inactive: 1.09.

In the case of AAPECINYAKFSSKS [KSYK_HUMAN_546_YA], the enrichment score was inactive: 1.21.

In the case of VTREEPIYIITEYMA [LYN_HUMAN_316], the enrichment score is inactive: 1.56.

In the case of EAVATRWYRAPEIML [MAPK3_HUMAN_210_YA], the enrichment score was inactive: 0.65.

The target in another assay is SHP2 N-SH2 domain T42A. The assay is described as above. To be noted: peptide library: Human pTyr.
Turning to VVGENTMYAQVFNLQ [LY9_HUMAN_603], the enrichment score is inactive: 0.968.

ELRLRNYYYDVVNGG [KSYK_HUMAN_630]: the enrichment score was inactive: 1.24.

Regarding SLDGSREYVNVSQEL [LAT_HUMAN_220], the enrichment score is inactive: 0.771.

As for VEVGSKIYVDDGLIS [KPYM_HUMAN_175], the enrichment score is inactive: 0.597.

For the molecule ADEDEDDYHNPGYLV [LAT_HUMAN_156], the enrichment score was inactive: 1.03.

Regarding GRYYEGYYAAGPGYG [LPP_HUMAN_301], the enrichment score is inactive: 1.12.

For the molecule IKFSKGKYKCVVEAI [LY96_HUMAN_131], the enrichment score is inactive: 1.29.

Consider DAQEENLYAAVKHTQ [LIRB1_HUMAN_533], for which the enrichment score was inactive: 0.716.

On to MTALSQGYRMPRVEN [LYN_HUMAN_460], for which the enrichment score was inactive: 0.654.

Turning to DLPDELLYGRAGALA [LANC2_HUMAN_198_YA], the enrichment score was inactive: 0.572.

In the case of ATATEGQYQQQPGGG [LYN_HUMAN_508_YA], the enrichment score is inactive: 0.63.

For EDPASSRYQNFSKGS [LAT2_HUMAN_95], the enrichment score was inactive: 0.786.

In the case of SNEDSSDYENVLTAK [LAX1_HUMAN_373], the enrichment score was inactive: 0.901.

For the molecule TNYSNPVYAKLYMDG [LRP1B_HUMAN_4562], the enrichment score is inactive: 2.08.

SDEDDEVYQVTVAQA [MDM2_HUMAN_276_YA]: the enrichment score was inactive: 1.05.

Regarding AAPECINYAKFSSKS [KSYK_HUMAN_546_YA], the enrichment score is inactive: 0.908.

For the molecule VTREEPIYIITEYMA [LYN_HUMAN_316], the enrichment score was inactive: 1.77.

In the case of EAVATRWYRAPEIML [MAPK3_HUMAN_210_YA], the enrichment score is inactive: 0.657.

The next assay has as its target SHP2 N-SH2 domain T52S. The description is as above. Particulars: peptide library: Human pTyr.
As for VVGENTMYAQVFNLQ [LY9_HUMAN_603], the enrichment score was inactive: 0.787.

For ELRLRNYYYDVVNGG [KSYK_HUMAN_630], the enrichment score was inactive: 1.14.

In the case of SLDGSREYVNVSQEL [LAT_HUMAN_220], the enrichment score is inactive: 0.817.

Turning to VEVGSKIYVDDGLIS [KPYM_HUMAN_175], the enrichment score is inactive: 0.727.

Consider ADEDEDDYHNPGYLV [LAT_HUMAN_156], for which the enrichment score was inactive: 1.24.

Regarding GRYYEGYYAAGPGYG [LPP_HUMAN_301], the enrichment score was inactive: 1.38.

For the molecule IKFSKGKYKCVVEAI [LY96_HUMAN_131], the enrichment score is inactive: 1.84.

Turning to DAQEENLYAAVKHTQ [LIRB1_HUMAN_533], the enrichment score was inactive: 0.769.

For the molecule MTALSQGYRMPRVEN [LYN_HUMAN_460], the enrichment score was inactive: 0.622.

As for DLPDELLYGRAGALA [LANC2_HUMAN_198_YA], the enrichment score is inactive: 0.533.

On to ATATEGQYQQQPGGG [LYN_HUMAN_508_YA], for which the enrichment score was inactive: 0.67.

On to EDPASSRYQNFSKGS [LAT2_HUMAN_95], for which the enrichment score was inactive: 0.628.

Regarding SNEDSSDYENVLTAK [LAX1_HUMAN_373], the enrichment score is inactive: 0.874.

On to TNYSNPVYAKLYMDG [LRP1B_HUMAN_4562], for which the enrichment score was inactive: 1.08.

Regarding SDEDDEVYQVTVAQA [MDM2_HUMAN_276_YA], the enrichment score is inactive: 1.22.

For AAPECINYAKFSSKS [KSYK_HUMAN_546_YA], the enrichment score is inactive: 1.23.

For VTREEPIYIITEYMA [LYN_HUMAN_316], the enrichment score was inactive: 1.59.

Regarding EAVATRWYRAPEIML [MAPK3_HUMAN_210_YA], the enrichment score was inactive: 0.803.

The next assay concerns the target SHP2 N-SH2 domain wild-type. Described as above. Particulars: peptide library: Human pTyr.
In the case of VVGENTMYAQVFNLQ [LY9_HUMAN_603], the enrichment score is inactive: 0.832.

With ELRLRNYYYDVVNGG [KSYK_HUMAN_630], the enrichment score was inactive: 1.67.

On to SLDGSREYVNVSQEL [LAT_HUMAN_220], for which the enrichment score is inactive: 0.808.

Take VEVGSKIYVDDGLIS [KPYM_HUMAN_175]: the enrichment score is inactive: 0.539.

Take ADEDEDDYHNPGYLV [LAT_HUMAN_156]: the enrichment score is inactive: 0.907.

Consider GRYYEGYYAAGPGYG [LPP_HUMAN_301], for which the enrichment score was inactive: 1.43.

As for IKFSKGKYKCVVEAI [LY96_HUMAN_131], the enrichment score is inactive: 1.6.

Turning to DAQEENLYAAVKHTQ [LIRB1_HUMAN_533], the enrichment score is inactive: 0.551.

As for MTALSQGYRMPRVEN [LYN_HUMAN_460], the enrichment score was inactive: 0.496.

With DLPDELLYGRAGALA [LANC2_HUMAN_198_YA], the enrichment score is inactive: 0.527.

ATATEGQYQQQPGGG [LYN_HUMAN_508_YA]: the enrichment score is inactive: 0.681.

Take EDPASSRYQNFSKGS [LAT2_HUMAN_95]: the enrichment score is inactive: 1.

For the molecule SNEDSSDYENVLTAK [LAX1_HUMAN_373], the enrichment score is inactive: 0.872.

As for TNYSNPVYAKLYMDG [LRP1B_HUMAN_4562], the enrichment score is inactive: 0.718.

With SDEDDEVYQVTVAQA [MDM2_HUMAN_276_YA], the enrichment score is inactive: 1.51.

With AAPECINYAKFSSKS [KSYK_HUMAN_546_YA], the enrichment score was inactive: 1.15.

With VTREEPIYIITEYMA [LYN_HUMAN_316], the enrichment score is inactive: 2.12.

In the case of EAVATRWYRAPEIML [MAPK3_HUMAN_210_YA], the enrichment score was inactive: 0.84.

Source of the values: the supplement of paper PMC10369915.
